The structures appear in SMILES notation. Counter-ions that a name gives are not always drawn. ± gives the standard deviation of the averaged measurements. Over roughly 2,600 compounds, “MBP+ mature oligodendrocyte number relative to DMSO vehicle control” has its median near -0.34; the highest 2% begin near 13. The list shows a part of the results.
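Further: 10 µM single dose with 3-day oligodendrocyte differentiation.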

The test concerns jimpy (Plp1 jimpy) mouse iPSC-derived oligodendrocyte progenitor cells. Description: MBP+ mature oligodendrocyte number relative to DMSO vehicle control (SDs above negative control mean); higher = more surviving jimpy oligodendrocytes (rescue). As to conditions: 10 µM; 3 days.
Consider `O=C(O)c1cc(=O)cc(C(=O)O)[nH]1` [Chelidamic acid], for which the “MBP+ mature oligodendrocyte number” value was -0.158.

With `CC(C)C[C@H](NC(=O)[C@@H](NC(=O)c1cccc(-c2ccccc2)n1)[C@@H](C)O)B(O)O`, the “MBP+ mature oligodendrocyte number” value was below -6.7.

With `CN1CCC(=C2c3ccccc3CCc3cccnc32)CC1` [Azatadine dimaleate], the “MBP+ mature oligodendrocyte number” value is -2.75.

For `Nc1nc2ccc(OC(F)(F)F)cc2s1` [Riluzole], the “MBP+ mature oligodendrocyte number” value amounted to 0.493 ± 0.72.

`COc1ccc2c(c1)c(CC(=O)O)c(C)n2C(=O)c1ccc(Cl)cc1` [Indomethacin]: the “MBP+ mature oligodendrocyte number” value stood at 0.3 ± 0.45.

Regarding `CNC(=O)c1cc(Oc2ccc(NC(=O)Nc3ccc(Cl)c(C(F)(F)F)c3)c(F)c2)ccn1` [Regorafenib (BAY 73-4506)], the “MBP+ mature oligodendrocyte number” value came to 1.51.

For the compound `CC(C)C[C@H](NC(=O)[C@H](O)[C@H](N)Cc1ccccc1)C(=O)O` [Epibestatin hydrochloride], the “MBP+ mature oligodendrocyte number” value was -1.54.

With `CN(C)CC(=O)Nc1ccc2[nH]c(=O)c3ccccc3c2c1`, the “MBP+ mature oligodendrocyte number” value was -1.25.

`COc1ccc2c(c1OC)C(=O)O[C@@H]2[C@H]1c2c(cc3c(c2OC)OCO3)CCN1C` [Noscapine hydrchloride]: the “MBP+ mature oligodendrocyte number” value is -0.0882.

On to `O=C(O)c1cc(/N=N/c2ccc(O)c(C(=O)O)c2)ccc1O` [Olsalazine Sodium], for which the “MBP+ mature oligodendrocyte number” value was -0.354.

`CCCCCCCCCCCCCCCC(=O)OC(CC(=O)O)C[N+](C)(C)C` (racemic) [Palmitoyl-DL-Carnitine chloride]: the “MBP+ mature oligodendrocyte number” value stood at 0.304.

For `O=C(Nc1ccccc1-c1cn2c(CN3CCNCC3)csc2n1)c1cnc2ccccc2n1`, the “MBP+ mature oligodendrocyte number” value was below -6.7.

As for `CN(C)CCCN1c2ccccc2Sc2ccccc21` [Promazine hydrochloride], the “MBP+ mature oligodendrocyte number” value was -3.28.

Regarding `Cc1cc(C(C)(C)C)c(O)c(C)c1CC1=NCCN1` [Oxymetazoline hydrochloride], the “MBP+ mature oligodendrocyte number” value is -1.54.

On to `Cc1cc(C(C)(C)C)c(O)c(C)c1CC1=NCCN1` [Oxymetazoline HCl], for which the “MBP+ mature oligodendrocyte number” value is -0.332.

As to `O=C[C@H](O)[C@@H](O)[C@H](O)CO` [Xylose], the “MBP+ mature oligodendrocyte number” value was -1.

In the case of `CC(=O)O[C@]1(C(C)=O)CC[C@H]2[C@@H]3C[C@H](C)C4=CC(=O)C=C[C@]4(C)[C@@]3(F)[C@@H](O)C[C@@]21C` [Fluorometholone Acetate], the “MBP+ mature oligodendrocyte number” value stood at 10.3.

On to `COc1ccc([C@@H]2CC(=O)c3c(O)cc(O[C@@H]4O[C@H](CO[C@@H]5O[C@@H](C)[C@H](O)[C@@H](O)[C@H]5O)[C@@H](O)[C@H](O)[C@H]4O)cc3O2)cc1O` [Hesperidin], for which the “MBP+ mature oligodendrocyte number” value stood at 1.23.

As for `O=c1cc(N2CCOCC2)oc2c(-c3cccc4c3sc3ccccc34)cccc12`, the “MBP+ mature oligodendrocyte number” value is -5.93.

On to `CC(C)(C(=O)O)c1ccc(C(O)CCCN2CCC(C(O)(c3ccccc3)c3ccccc3)CC2)cc1` (centres undefined) [Fexofenadine HCl], for which the “MBP+ mature oligodendrocyte number” value came out at 1.53.

As for `CC(C)(C(=O)O)c1ccc(C(O)CCCN2CCC(C(O)(c3ccccc3)c3ccccc3)CC2)cc1` (centres undefined) [Fexofenadine hydrochloride], the “MBP+ mature oligodendrocyte number” value was found to be 0.659.

Take `CC(N)=NCCCC[C@H](N)C(=O)O` [L-N6-(1-Iminoethyl)lysine hydrochloride]: the “MBP+ mature oligodendrocyte number” value is -0.206.

For `Cc1ccc(O)c(N=Nc2ccccc2)n1`, the “MBP+ mature oligodendrocyte number” value was -0.318.

On to `COC(c1ccccc1)(c1ccccc1)[C@H](Oc1nc(C)cc(C)n1)C(=O)O` [Ambrisentan], for which the “MBP+ mature oligodendrocyte number” value came out at 0.115.

Turning to `COC(=O)C1=C(C)NC(C)=C(C(=O)OCCN2CCN(C(c3ccccc3)c3ccccc3)CC2)C1c1cccc([N+](=O)[O-])c1` (centres undefined) [Manidipine 2HCl], the “MBP+ mature oligodendrocyte number” value was below -4.81.

Consider `COC(=O)C1=C(C)NC(C)=C(C(=O)OCCN2CCN(C(c3ccccc3)c3ccccc3)CC2)C1c1cccc([N+](=O)[O-])c1` (centres undefined) [Manidipine], for which the “MBP+ mature oligodendrocyte number” value is below -4.81.

In the case of `CC(C)N(C[C@H]1O[C@@H](n2cnc3c(N)ncnc32)[C@H](O)[C@@H]1O)[C@H]1C[C@@H](CCc2nc3cc(C(C)(C)C)ccc3[nH]2)C1`, the “MBP+ mature oligodendrocyte number” value is -3.14.

On to `COC(=O)C[C@H](NC(=O)[C@H](C)NC(=O)[C@@H](NC(=O)OCc1ccccc1)C(C)C)C(=O)CF`, for which the “MBP+ mature oligodendrocyte number” value amounted to 1.89.

Turning to `CC(=O)Nc1ccccc1` [Acetanilide], the “MBP+ mature oligodendrocyte number” value was found to be 0.619.

On to `COc1ccc(/C=C/c2nc(NCCCN(C)C)c3ccccc3n2)cc1`, for which the “MBP+ mature oligodendrocyte number” value was below -3.85.

Take `C[N+]1(C)[C@@H]2C[C@@H](OC(=O)C(O)(c3cccs3)c3cccs3)C[C@H]1[C@@H]1O[C@@H]12` [Tiotropium Bromide hydrate]: the “MBP+ mature oligodendrocyte number” value is -0.164.

Consider `CC(C)(C)C(=O)Oc1ccc(S(=O)(=O)Nc2ccccc2C(=O)NCC(=O)O)cc1` [Sivelestat sodium salt hydrate], for which the “MBP+ mature oligodendrocyte number” value is -0.167.

Turning to `CSc1ccc2c(c1)C(N1CCN(C)CC1)Cc1ccccc1S2` (centres undefined) [Methiothepin mesylate], the “MBP+ mature oligodendrocyte number” value is -3.89.

Take `CC(C(=O)O)c1ccc2c(c1)Cc1cccnc1O2` (centres undefined) [Pranoprofen]: the “MBP+ mature oligodendrocyte number” value came out at 4.84.

As to `Nc1nc2c(c(=O)[nH]1)C[C@@H](CCc1ccc(C(=O)N[C@@H](CCC(=O)O)C(=O)O)cc1)CN2` [Lometrexol hydrate], the “MBP+ mature oligodendrocyte number” value is 0.225.

Take `CC1(C)S[C@@H]2[C@H](NC(=O)[C@H](NC(=O)N3CCNC3=O)c3ccccc3)C(=O)N2[C@H]1C(=O)O` [Azlocillin sodium salt]: the “MBP+ mature oligodendrocyte number” value came to 0.342.

In the case of `CC(C)c1ccc2oc3nc(N)c(C(=O)O)cc3c(=O)c2c1` [Amlexanox], the “MBP+ mature oligodendrocyte number” value is -0.786.

As for `CCn1c2ccccc2c2cc(Nc3ccnc(NCCCN4CCOCC4)n3)ccc21`, the “MBP+ mature oligodendrocyte number” value is below -6.35.

Take `O=C1[C@H](Cc2ccc(O)cc2)N2C(=O)CCN(C(=O)NCc3ccccc3)[C@H]2CN1Cc1cccc2ccccc12`: the “MBP+ mature oligodendrocyte number” value is below -6.01.

Regarding `Nc1nc2c(ncn2[C@@H]2O[C@H](CO)[C@@H](O)[C@H]2O)c(=O)[nH]1` [Guanosine], the “MBP+ mature oligodendrocyte number” value turned out to be 1.18.

As for `Cn1cc(-c2ccc3ncc(Cc4ccc5ncccc5c4)n3n2)cn1`, the “MBP+ mature oligodendrocyte number” value was -4.5.

On to `Cc1cc(NC(=O)Nc2ccc(N(C)C)cc2)c2cc(F)cc(F)c2n1`, for which the “MBP+ mature oligodendrocyte number” value was found to be 29.4.

Turning to `Cc1onc(-c2c(Cl)cccc2Cl)c1C(=O)N[C@@H]1C(=O)N2[C@@H]1SC(C)(C)[C@@H]2C(=O)O` [Dicloxacillin Sodium], the “MBP+ mature oligodendrocyte number” value was 0.829.

With `CN(C)/N=N/c1[nH]cnc1C(N)=O` [Dacarbazine], the “MBP+ mature oligodendrocyte number” value turned out to be 3.95.

With `CCCCCC[C@@H]([C@@H](C)O)n1cnc2c(N)ncnc21` [erythro-9-(2-Hydroxy-3-nonyl)adenine hydrochloride], the “MBP+ mature oligodendrocyte number” value was found to be 3.38.

Consider `CC1C(=O)OC2C(O)C34C5CC(C(C)(C)C)C36C(OC(=O)C6O)OC4(C(=O)O5)C12O` (centres undefined) [Ginkgolide B], for which the “MBP+ mature oligodendrocyte number” value is 1.68.

As to `C[N+](C)(C)CCCCCC[N+](C)(C)C` [Hexamethonium dichloride], the “MBP+ mature oligodendrocyte number” value was 0.45.

As to `C[N+](C)(C)CCCCCC[N+](C)(C)C` [Hexamethonium bromide], the “MBP+ mature oligodendrocyte number” value is -0.23.

For the compound `CCCCCCCCc1ccc(-c2ccc(C(=O)O)cc2)cc1`, the “MBP+ mature oligodendrocyte number” value is -0.675.

As to `CC1CC(OC(=O)C(O)c2ccccc2)CC(C)(C)C1` (centres undefined) [Cyclandelate], the “MBP+ mature oligodendrocyte number” value came out at 4.8.

Turning to `Cc1oncc1C(=O)Nc1ccc(C(F)(F)F)cc1` [Leflunomide], the “MBP+ mature oligodendrocyte number” value was -0.112 ± 0.19.

`O=C(O)c1cccnc1Nc1cccc(C(F)(F)F)c1` [Niflumic acid]: the “MBP+ mature oligodendrocyte number” value is 1.17 ± 0.73.

Turning to `Cc1cn([C@H]2O[C@@H](CO)[C@H](O)[C@H]2F)c(=O)[nH]c1=O` [Clevudine], the “MBP+ mature oligodendrocyte number” value amounted to 3.2.

For `Cc1cn(C2C=CC(CO)O2)c(=O)[nH]c1=O` (centres undefined) [2',3'-didehydro-3'-deoxythymidine], the “MBP+ mature oligodendrocyte number” value is -0.439.

As to `CC(CCc1ccccc1)NCC(O)c1ccc(O)c(C(N)=O)c1` (centres undefined) [Labetalol hydrochloride], the “MBP+ mature oligodendrocyte number” value is below -3.97.

In the case of `CCOC(=O)[C@H](CCc1ccccc1)N[C@@H](C)C(=O)N1Cc2ccccc2C[C@H]1C(=O)O` [Quinapril HCl], the “MBP+ mature oligodendrocyte number” value was -1.28.

In the case of `O=c1cc(-c2cccc3c2Sc2ccccc2S3)oc(N2CCOCC2)c1`, the “MBP+ mature oligodendrocyte number” value is -3.99.

For the compound `Fc1ccc(C(c2ccc(F)cc2)N2CCN(C/C=C/c3ccccc3)CC2)cc1` [Flunarizine 2HCl], the “MBP+ mature oligodendrocyte number” value is -4.07.

Regarding `Fc1ccc(C(c2ccc(F)cc2)N2CCN(C/C=C/c3ccccc3)CC2)cc1` [Flunarizine dihydrochloride], the “MBP+ mature oligodendrocyte number” value was below -4.47.

Regarding `Oc1ccc([C@H]2COc3cc(O)ccc3C2)cc1` [Equol], the “MBP+ mature oligodendrocyte number” value amounted to 3.75.

On to `Cc1ccc(Nc2c(F)cccc2Cl)c(CC(=O)O)c1` [Lumiracoxib], for which the “MBP+ mature oligodendrocyte number” value came to 0.263.

With `N#Cc1c(O)c2c(-c3ccc(-c4ccccc4O)cc3)csc2[nH]c1=O`, the “MBP+ mature oligodendrocyte number” value turned out to be 2.8.

`CCCCC(=O)O[C@H]1CC[C@H]2[C@@H]3CCc4cc(O)ccc4[C@H]3CC[C@]12C` [Estradiol valerate]: the “MBP+ mature oligodendrocyte number” value came out at 5.03.

Regarding `N=C(N)c1ccc(OCCCCCOc2ccc(C(=N)N)cc2)cc1` [Pentamidine], the “MBP+ mature oligodendrocyte number” value was -5.93.

Consider `N=C(N)c1ccc(OCCCCCOc2ccc(C(=N)N)cc2)cc1` [Pentamidine isethionate], for which the “MBP+ mature oligodendrocyte number” value is below -3.97.

On to `Cc1[nH]c2ccccc2c1CCNC(=O)c1cccs1`, for which the “MBP+ mature oligodendrocyte number” value is -0.745.

As for `OCCOCCN1CCN(C2=Nc3ccccc3Sc3ccccc32)CC1` [Quetiapine Fumarate], the “MBP+ mature oligodendrocyte number” value is -2.54.

Turning to `COc1cccc2c1C(=O)c1c(O)c3c(c(O)c1C2=O)C[C@@](O)(C(=O)CO)C[C@@H]3O[C@H]1C[C@H](N)[C@H](O)[C@H](C)O1` [Doxorubicin (Adriamycin)], the “MBP+ mature oligodendrocyte number” value is -5.74.

With `Cn1cnc2c(NCc3ccccc3)nc(NCCO)nc21` [Olomoucine], the “MBP+ mature oligodendrocyte number” value was 1.83.

Regarding `Cc1cc(C(=O)NOCCO)c(Nc2ccc(I)cc2F)n(C)c1=O`, the “MBP+ mature oligodendrocyte number” value is -0.892.

Take `CC1(C)S[C@@H]2[C@H](NC(=O)[C@H](N)c3ccc(O)cc3)C(=O)N2[C@H]1C(=O)O` [Amoxicillin Sodium]: the “MBP+ mature oligodendrocyte number” value stood at 0.283.

Consider `CC1(C)S[C@@H]2[C@H](NC(=O)[C@H](N)c3ccc(O)cc3)C(=O)N2[C@H]1C(=O)O` [Amoxicillin], for which the “MBP+ mature oligodendrocyte number” value was 0.819.

Turning to `COc1cccc2c1[C@@H]1CN(CCCCn3c(=O)[nH]c4c(sc5ncc(-c6ccccc6)nc54)c3=O)C[C@@H]1CO2` [Fiduxosin hydrochloride], the “MBP+ mature oligodendrocyte number” value is -4.31.

For the compound `CN[C@@H]1[C@H](O[C@H]2[C@H](O[C@H]3[C@H](O)[C@@H](O)[C@H](N=C(N)N)[C@@H](O)[C@@H]3N=C(N)N)O[C@@H](C)[C@]2(O)C=O)O[C@@H](CO)[C@H](O)[C@H]1O` [Streptomycin sulfate], the “MBP+ mature oligodendrocyte number” value was -0.724.

For the origin of these results see the supplement of paper PMC6135742.
